B1: PhoQ; a variant is named by its letters at X, in order, P23837 (parent)
chain: MKKLLRLFFPLSLRVRFLLATAAVVLVLSLAYGMVALIGYSVSFDKTTFRLLRGESNLFYTLAKWENNKLHVELPENIDKQSPTMTLIYDENGQLLWAQRDVPWLMKMIQPDWLKSNGFHEIEADVNDTSLLLSGDHSIQQQLQEVREDDDDAEMTHSVAVNVYPATSRMPKLTIVVVDTIPVELKSSYMVWSWFIYVLSANLLLVIPLLWVAAWWSLRPIEALAKEVRELEEHNRELLNPATTRELTSLVRNLNRLLKSERERYDKYRTTLTDLTHSLKTPLXXLQXXLRSLRSEKMSVSDAEPVMLEQISRISQQIGYYLHRASMRGGTLLSRELHPVAPLLDNLTSALNKVYQRKGVNISLDISPEISFVGEQNDFVEVMGNVLDNACKYCLEFVEISARQTDEHLYIVVEDDGPGIPLSKREVIFDRGQRVDTLRPGQGVGLAVAREITEQYEGKIVAGESMLGGARMEVIFGRQHSAPKDE

The list shows a part of the results. Bounds are passed on as bounds.

In the experiment the parent is B1. Description: enrichment ratio after two sorts for PhoP signalling (ratio (wild type AVST 3.29)); higher = more functional. To be noted: with PhoP (E. coli).
Consider MYFV, for which the enrichment ratio was ≤ 0.25. For the variant VEMT, the enrichment ratio was ≤ 0.25. Consider NKAN, for which the enrichment ratio is ≤ 0.25. With RVEW, the enrichment ratio is ≤ 0.25. As to TCQY, the enrichment ratio is 31.4. For the variant TTRY, the enrichment ratio was ≤ 0.25. As to LIED, the enrichment ratio was ≤ 0.25. Take FLDR: the enrichment ratio is ≤ 0.25. The result for GFWS reads ≤ 0.25; that for NFQP, ≤ 0.25. The result for RHWA reads ≤ 0.25; that for DWYF, ≤ 0.25. As for LMFV, the enrichment ratio is ≤ 0.25.

Regarding IQFK, the enrichment ratio was ≤ 0.25. Then SLRT, with ≤ 0.25; and HWFT, with ≤ 0.25. For the variant LNDQ, the enrichment ratio is ≤ 0.25. Turning to PKWD, the enrichment ratio is ≤ 0.25. Regarding GDFH, the enrichment ratio is ≤ 0.25. The result for WPPK reads ≤ 0.25; that for NWSI, ≤ 0.25; that for NCTY, ≤ 0.25. For the variant DTDQ, the enrichment ratio is ≤ 0.25. For LDTM, the enrichment ratio is ≤ 0.25. Consider WRGY, for which the enrichment ratio was ≤ 0.25.

GGGS: the enrichment ratio is ≤ 0.25. Then QRYI, with ≤ 0.25; and NMEP, with ≤ 0.25; and ATSH, with 10.6. For the variant MVGP, the enrichment ratio is ≤ 0.25.

Consider GCCM, for which the enrichment ratio was ≤ 0.25. The result for LQKE reads ≤ 0.25. Then ELPN, with ≤ 0.25; and GVPV, with ≤ 0.25; and YSQH, with ≤ 0.25. Consider AKTH, for which the enrichment ratio was 4.03. As for QMAR, the enrichment ratio is ≤ 0.25. The result for RSQA reads ≤ 0.25. For the variant NDYA, the enrichment ratio is ≤ 0.25. For the variant IYLI, the enrichment ratio is ≤ 0.25. For the variant QRQD, the enrichment ratio was ≤ 0.25.

In the case of KCQD, the enrichment ratio was ≤ 0.25.

Consider NFTR, for which the enrichment ratio is ≤ 0.25.

Turning to YKMW, the enrichment ratio was ≤ 0.25. The result for IFRN reads ≤ 0.25. Then NVSH, with ≤ 0.25; and WAHI, with ≤ 0.25; and WQCR, with ≤ 0.25. For the variant LLFN, the enrichment ratio was ≤ 0.25.

In the case of MFTA, the enrichment ratio is ≤ 0.25.

Turning to VFEF, the enrichment ratio was ≤ 0.25.

Take DCDG: the enrichment ratio is ≤ 0.25. For the variant LYWG, the enrichment ratio was ≤ 0.25.

Regarding LDVM, the enrichment ratio is ≤ 0.25. With LSQA, the enrichment ratio was ≤ 0.25. The result for HWVC reads ≤ 0.25; that for RRKR, ≤ 0.25. As to SSIN, the enrichment ratio is 6.9. On to AARS, for which the enrichment ratio was ≤ 0.25. For PYKE, the enrichment ratio is ≤ 0.25. As for ALFC, the enrichment ratio is ≤ 0.25. The result for VQGY reads ≤ 0.25; that for SWYS, ≤ 0.25. Then HMPF, with ≤ 0.25; and DHTE, with ≤ 0.25; and WKDI, with ≤ 0.25. As to RDEW, the enrichment ratio is ≤ 0.25. The result for PANE reads ≤ 0.25.

Regarding YQID, the enrichment ratio was ≤ 0.25. Consider PFAW, for which the enrichment ratio is ≤ 0.25.

For the variant DIMC, the enrichment ratio was ≤ 0.25. Consider QWRS, for which the enrichment ratio is ≤ 0.25. The result for YTYI reads ≤ 0.25. With PEFN, the enrichment ratio is ≤ 0.25. The result for AYYP reads ≤ 0.25; that for WMRM, ≤ 0.25; that for PGQF, ≤ 0.25.

As for EEVT, the enrichment ratio was ≤ 0.25. As to SDYV, the enrichment ratio is ≤ 0.25. As to MQRV, the enrichment ratio was ≤ 0.25. With SDAD, the enrichment ratio is ≤ 0.25. The result for YTLT reads ≤ 0.25; that for QSRE, ≤ 0.25. Consider EAPG, for which the enrichment ratio is ≤ 0.25. As for HKWK, the enrichment ratio is ≤ 0.25. In the case of MLTM, the enrichment ratio was 4.75. KCSE: the enrichment ratio is ≤ 0.25.

On to QRIM, for which the enrichment ratio is ≤ 0.25.

On to NTHV, for which the enrichment ratio was ≤ 0.25. On to RIKL, for which the enrichment ratio is ≤ 0.25. For the variant WSRF, the enrichment ratio was ≤ 0.25. For IEMH, the enrichment ratio was ≤ 0.25. The result for WEPG reads ≤ 0.25; that for QLFF, ≤ 0.25.

As for MPPS, the enrichment ratio is ≤ 0.25. On to IPRY, for which the enrichment ratio is ≤ 0.25. The result for HEVC reads ≤ 0.25; that for VGRN, ≤ 0.25. Regarding IMVK, the enrichment ratio is ≤ 0.25. For LFCD, the enrichment ratio was ≤ 0.25.

With AMAP, the enrichment ratio was determined as 0.595.

As for VNNV, the enrichment ratio is ≤ 0.25. As for GGSG, the enrichment ratio is ≤ 0.25. With HRVS, the enrichment ratio is ≤ 0.25. As to RSLQ, the enrichment ratio was ≤ 0.25. For the variant LQVE, the enrichment ratio was ≤ 0.25. The result for TEGD reads ≤ 0.25. Regarding SKHH, the enrichment ratio was ≤ 0.25. For FHEG, the enrichment ratio is ≤ 0.25.

For NFYS, the enrichment ratio was ≤ 0.25. With GPKF, the enrichment ratio was ≤ 0.25. For QPNY, the enrichment ratio is ≤ 0.25. The result for PAGD reads ≤ 0.25; that for VVWR, ≤ 0.25. The result for DCIK reads ≤ 0.25; that for MFHV, ≤ 0.25. QTLK: the enrichment ratio was ≤ 0.25.

Consider LMWS, for which the enrichment ratio is ≤ 0.25. Turning to SAGV, the enrichment ratio stood at 7.24. On to LGEE, for which the enrichment ratio was ≤ 0.25. Regarding TMWI, the enrichment ratio is ≤ 0.25. The result for RSNV reads ≤ 0.25; that for ITPE, ≤ 0.25; that for WVSQ, ≤ 0.25. On to VFMY, for which the enrichment ratio was ≤ 0.25.

On to RQLT, for which the enrichment ratio was ≤ 0.25.

For the variant MSAF, the enrichment ratio is 3.4.

Take HGNG: the enrichment ratio was ≤ 0.25.

As to TMCA, the enrichment ratio amounted to 8.5. For the variant RAYF, the enrichment ratio was ≤ 0.25. Consider ENAL, for which the enrichment ratio was ≤ 0.25. For VRTG, the enrichment ratio is ≤ 0.25.

Take LSTT: the enrichment ratio is ≤ 0.25. Turning to PFMN, the enrichment ratio was ≤ 0.25. Turning to ADLR, the enrichment ratio amounted to 2.2. As for TDTM, the enrichment ratio is ≤ 0.25.

VVSD: the enrichment ratio was ≤ 0.25. Turning to AGAG, the enrichment ratio is ≤ 0.25. Turning to VYYR, the enrichment ratio is ≤ 0.25. In the case of EDST, the enrichment ratio is ≤ 0.25.

In the case of RFVQ, the enrichment ratio is ≤ 0.25. Consider SDDA, for which the enrichment ratio was ≤ 0.25.

As for ISEC, the enrichment ratio was ≤ 0.25.

For PWMS, the enrichment ratio is ≤ 0.25. For the variant NVVK, the enrichment ratio was ≤ 0.25.

As for KIIW, the enrichment ratio was ≤ 0.25. Take YGEV: the enrichment ratio is ≤ 0.25. Then ADIR, with 4.04; and MMYL, with 3.03. For EWVG, the enrichment ratio is ≤ 0.25. As for YELR, the enrichment ratio is ≤ 0.25. The result for VQEC reads ≤ 0.25; that for DNWR, ≤ 0.25.

The values above are taken from a collection of fitness landscapes (doi:10.1126/science.1257360).
